PubChem BioAssay AID1508642 (National Center for Advancing Translational Sciences (NCATS), 2021)
The whole screen tested about 43,000 compounds, of which about 200 (0.47%) were called active. Roughly 12% stayed inconclusive and do not appear here. Calls follow the shape of the dose curve; as a rule, active = well fitted cell-killing curve with a large enough effect; inconclusive = small, poorly fitted or top-dose-only effect, or effect the other way; inactive = flat fitted curve, though single readings scatter. The list shows a part of the results.

Assay: Cell viability qHTS assay in S16 Pmp22-F2sN cells; also: nearly all actives have a fitted effect of over 65% in size
Details: S16 Pmp22-F2sN Schwann cells viability, CellTiter-Glo, 24 h; series mostly up to 57.5 µM; activity change, negative = cytotoxicity: at the top concentration
In short: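 S16 Pmp22-F2sN Schwann cells (500-1,000/well) in phenol-red-free DMEM with 10% FBS received 23 nL compound by pin tool for 24 h at 37 °C. Viability was then read as CellTiter-Glo luminescence after 15 min at room temperature.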
% is scaled to controls: 0 for no effect and ±100 for the full control effect.

| SMILES | activity change, negative = cytotoxicity |
| --- | --- |
| CCOc1ccc(C(=O)NCCc2csc(-c3cccc(F)c3)n2)cc1OCC | inactive: 9.24% |
| Cc1cn2c(=O)c(S(=O)(=O)Nc3ccc(F)cc3F)c(C)nc2s1 | inactive: 15% |
| O=C(NCCC1=CCCCC1)C1CCN(C(=O)N2CCOc3ccc(Cl)cc32)CC1 | inactive: -13% |
| O=C(NCc1ccco1)c1ccc2c(c1)N(Cc1ccc(Cl)cc1)C(=O)c1ccccc1S2(=O)=O | inactive: 16.6% |
| COC(=O)c1nnn(-c2ccc(Br)cc2)c1C(=O)OC | inactive: 0.993% |
| CCOC(=O)c1noc2ncnc(Nc3cccc(OC)c3)c12 | inactive: 1.65% |
| CCOC(=O)COc1ccc(F)cc1C(=O)c1ccn2nc(-c3ccc(Cl)cc3)cc2n1 | inactive: 23.1% |
| O=C(COc1ccccc1Cl)Nc1ccc2nc(SCC(=O)N3CCCC3)sc2c1 | inactive: -2.32% |
| CCCn1c(=O)c2sccc2n2c(CCCC(=O)NCc3ccccc3)nnc12 | inactive: 4.97% |
| CC(=O)Nc1c(C)nn(-c2ccccc2)c1N1CCC(C(=O)NCc2ccccc2Cl)CC1 | inactive: -0.342% |
| Cc1ccc(S(=O)Cc2nc(-c3ccc(C(=O)NCc4cccc(C)c4)cc3)oc2C)cc1 (configuration not stated) | inactive: -2.73% |
| O=C(CCn1nc(-c2ccc(Cl)cc2)ccc1=O)NCCc1ccccc1 | inactive: -20.6% |
| COc1cccc(NC(=O)CSc2nc(-c3ccccc3Cl)nc3c2Cc2c(CO)cnc(C)c2O3)c1 | inactive: -12.4% |
| COc1ccc(-c2cc(-c3ccccc3)nc(SCC(=O)Nc3ccccc3F)c2C#N)cc1 | inactive: 11.6% |
| CCOC(=O)C1=C(CS(=O)(=O)c2ccc(OC)c(Cl)c2)NC(=O)NC1c1cccc(OC)c1 (configuration not stated) | inactive: 1.28% |
| Cc1ccc(NC(=O)N2CCC(CN3CCCC3)CC2)c(C)c1 | inactive: 13.4% |
| Cc1ccc(-c2nc(C(=O)NCc3ccccc3Cl)c3n2CCCCC3)cc1 | inactive: 1.98% |
| CCc1cccc(NC(=O)c2ccc(NC(=O)N3CCSc4ncccc43)cc2)c1 | inactive: -0.0106% |
| O=C(CCCc1ccccc1)NC1CC(=O)N(c2ccc(F)cc2)C1 (configuration not stated) | inactive: 7.8% |
| COC(=O)C1CCN(S(=O)(=O)c2ccc(N3CCCCS3(=O)=O)cc2)CC1 | inactive: -4.5% |
| COC(=O)c1cc(C)nc2c1c(=O)nc(SCc1ccccc1C)n2C1CC1 | inactive: 3.97% |
| Cc1ccc(C(=O)NCC(c2ccc3c(c2)OCO3)N2CCOCC2)cc1 (configuration not stated) | inactive: 7.26% |
| CCc1nn(CCCC(=O)N2CCN(c3cccc(OC)c3)CC2)c(=O)c2cc3occc3n12 | inactive: 18.9% |
| Cc1c(-c2nc(-c3ccc4c(c3)OCO4)no2)nnn1-c1ccc(C(C)C)cc1 | inactive: 0.103% |
| Cc1cccc(NC(=O)C(Cc2ccccc2)NS(=O)(=O)c2ccc3c(c2)c(=O)n(C)c(=O)n3C)c1 (configuration not stated) | inactive: 9.63% |
| Cc1ccc(NC(=O)N2CCN(c3cc(-c4noc(C)n4)ccc3C)CC2)c(F)c1 | inactive: -17.7% |
| CCC(=O)Oc1ccc(C2Nc3ccccc3-c3nnc(SC)nc3O2)cc1 (configuration not stated) | inactive: -5.4% |
